This assay has as its target CynD R67C (Bacillus pumilus). The assay is described as follows: SEC; Superdex 200 10/300 GL, 0.1 M MOPS pH 7.7, 0.5 ml/min; His-tag purified protein; column calibrated with a marker kit, and with wild-type B. pumilus CynD (18-mer) and P. stutzeri CynD (14-mer). (Size exclusion chromatography separates by hydrodynamic size, large species first.)

Some values that stand alone complete this part of the results.

As usually defined, the stoichiometry N is the number of molecules, sites or subunits per partner or assembly.

Turning to CynD R67C (enzyme), the stoichiometry N by setting is: (14-mer elution peak) 14 subunits; (dimer elution peak) 2 subunits; (hexamer elution peak) 6 subunits.

Values taken from PMC4700190.
